Results published in publication PMC4336329 (PLoS ONE, 2015).
Screen size: about 310,000 compounds; about 2,200 (0.71%) showed an effect of 50% or more. Effects have a minus sign here. The list shows a part of the results.

Molecular target: human ether-à-go-go-related gene (hERG) potassium channel (human, UniProt Q12809)
Experiment: primary screen, population patch clamp on CHO cells stably expressing hERG

Chain of human ether-à-go-go-related gene (hERG) potassium channel (Q12809 whole entry, looked up): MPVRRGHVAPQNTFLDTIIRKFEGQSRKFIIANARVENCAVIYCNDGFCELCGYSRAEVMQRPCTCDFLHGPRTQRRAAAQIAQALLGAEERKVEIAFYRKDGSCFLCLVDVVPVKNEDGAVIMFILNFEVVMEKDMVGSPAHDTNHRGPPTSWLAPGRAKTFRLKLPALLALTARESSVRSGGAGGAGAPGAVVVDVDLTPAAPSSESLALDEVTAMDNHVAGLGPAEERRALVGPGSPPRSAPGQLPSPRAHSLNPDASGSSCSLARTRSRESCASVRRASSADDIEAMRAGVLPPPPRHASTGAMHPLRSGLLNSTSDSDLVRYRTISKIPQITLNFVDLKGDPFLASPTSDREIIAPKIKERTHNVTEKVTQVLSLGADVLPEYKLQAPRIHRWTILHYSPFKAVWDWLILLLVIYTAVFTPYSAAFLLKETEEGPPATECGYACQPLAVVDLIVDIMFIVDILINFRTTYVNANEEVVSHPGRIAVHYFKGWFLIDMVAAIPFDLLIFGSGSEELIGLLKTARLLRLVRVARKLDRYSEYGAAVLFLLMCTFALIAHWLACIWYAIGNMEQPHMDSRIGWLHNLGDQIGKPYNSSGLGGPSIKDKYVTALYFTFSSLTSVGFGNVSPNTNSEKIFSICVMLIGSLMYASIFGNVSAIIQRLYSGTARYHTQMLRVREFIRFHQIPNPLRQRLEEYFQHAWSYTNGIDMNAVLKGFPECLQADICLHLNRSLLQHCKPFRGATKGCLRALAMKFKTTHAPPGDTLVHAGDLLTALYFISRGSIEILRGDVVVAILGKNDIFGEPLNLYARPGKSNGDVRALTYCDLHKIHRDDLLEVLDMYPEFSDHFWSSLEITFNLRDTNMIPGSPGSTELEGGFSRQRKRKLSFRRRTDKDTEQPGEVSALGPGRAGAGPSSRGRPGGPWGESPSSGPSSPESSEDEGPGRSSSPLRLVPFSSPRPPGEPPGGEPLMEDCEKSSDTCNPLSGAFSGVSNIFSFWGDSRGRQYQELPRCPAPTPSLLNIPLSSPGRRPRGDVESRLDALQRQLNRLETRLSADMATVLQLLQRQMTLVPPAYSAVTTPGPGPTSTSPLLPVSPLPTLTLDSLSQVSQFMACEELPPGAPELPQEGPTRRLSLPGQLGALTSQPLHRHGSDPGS

Compound	hERG current change (%, negative = inhibition) at 1uM [%]
CCC(CC(C)(C)O)C(=O)NNC(=S)Nc1ccccc1 (stereo not shown)	5.53
COCCNC(=O)C/C(C)=N/NC(=O)C(=O)NC1CCCCC1	8
COc1ccc(C(=O)NCCONC(=O)c2ccc(OC)cc2)cc1	3.45
Cc1ccc(OCCCCCCN2CCNCC2)cc1.O=C(O)C(=O)O	12.6
CCCN1CN(Cc2ccco2)c2nc3ccccc3n2C1	-19
COc1ccccc1C(=O)NCCC(=O)NN1C(=O)NC2(CCCCC2)C1=O	37.5
CCCN1C(=O)c2cc(C(=O)Nc3ccc(OC)c(OC)c3)ccc2C1Nc1ccc(OC)c(OC)c1 (stereo not shown)	13.8
CC(C)CC(c1nnnn1Cc1ccc(F)cc1)N1CCC(C(N)=O)CC1 (stereo not shown)	3.42
COC(=O)CN1C(=O)CSc2ncccc21	5.78
Cc1cc(Nc2nn(C)c(N)c2C#N)ccc1F	0.986
CCN1CCN(C(=O)COc2cc(=O)n(CC)c3ccccc23)CC1	-1.05
Cc1cc(=O)c2ccc(C(F)(F)F)cc2[nH]1	17.8
O=C(CSc1nc2nc[nH]c2c(=O)[nH]1)NC1CCCCC1	3.7
CC(=O)Nc1cc(C)c(S(C)(=O)=O)c(C)c1	10.5
COc1cccc(CNC(=O)CCn2c(=O)oc3ccccc32)c1	11
[O-]c1n[n+](-c2ccc(Cl)cc2)cc2ccccc12	10.1
Cc1ccc(SC(C)C(=O)Nc2c(C)n(C)n(-c3ccccc3)c2=O)cc1 (stereo not shown)	-1.87
O=C(NNC(=O)c1ccccc1Cl)c1cccnc1	5.99
O=C(NC1CCCCC1)c1ccc(S(=O)(=O)NCc2ccco2)cc1	16.7
CCCCNC(=S)N1CCC(Cc2ccccc2)CC1	-0.89
COC(=O)C(Cc1ccc(N(CCCl)CCCl)cc1)N=Cc1ccccc1O (stereo not shown)	15.7
O=C(c1ccc(Cl)nc1)N1CCc2ccccc2C1	4.81
Cc1ccc(O)c(NC(=O)c2cc(-c3ccccc3)on2)c1	13.8

Compound	hERG current change (%, negative = inhibition) at 1uM [%]
Cc1c(C(=O)Nc2ccccc2F)sc2ncn(CC(=O)N3CCOCC3)c(=O)c12	10.8
Cn1c(=O)cc(OCC(=O)N2CCC3(CC2)OCCO3)c2ccccc21	13.4
O=C(CN1C(=O)c2ccccc2C1=O)Nc1ccc2c(c1)OCO2	9.12
O=C(OCC(=O)N1CCOCC1)c1cc2ccccc2oc1=O	6.98
CCn1c(SCC(=O)NCc2ccc3c(c2)OCO3)nc2c(c1=O)SCC2	10.6
COc1cc(Cl)c(C)cc1NCC(=O)Nc1cccc(S(=O)(=O)N2CCCC2)c1	3.43
CCNC(=O)CC1C(=O)N(c2ccc(C)cc2)C(=O)N1Cc1ccccn1 (stereo not shown)	-10.2
CC(=O)Nc1c(-c2ccccc2)c2cc(Br)ccc2[nH]c1=O	12.6
O=C(Nc1cccc(S(=O)(=O)NC2=NCCCCC2)c1)c1cc(-c2ccc(Cl)cc2)nc2ccccc12	8.83
Cc1snc(SCC(=O)c2ccc(F)cc2)c1C#N	6.32
CC(=O)N(c1c(C)n(C)n(-c2ccccc2)c1=O)C1(C(=O)NC2CCCCC2)CCCCC1	4.78
CC(C)(C)NC(=O)CSc1nnnn1C(C)(C)C	3.17
O=c1[nH][nH]cc1C=Nc1ccccc1Cl	35.2
COc1cccc(/C=N/NC(=O)CCc2n[nH]c(=O)[nH]c2=O)c1O	3.5
COC(=O)Cn1c(CN2CCN(C(=O)c3ccco3)CC2)nc2c1c(=O)n(C)c(=O)n2C	11.1
C=C(C)C1CC=C(CN2CC(C)OC(C)C2)CC1 (stereo not shown)	9.43
CC12COC3(C(=O)Nc4ccccc4F)CC1CCC32C (stereo not shown)	7.11
CCNC(=S)N(Cc1cc2c(C)ccc(C)c2[nH]c1=O)C1CCCC1	14.4
CNC(=O)Cn1ncc2c(C)n(Cc3ccc(C)cc3)c(C)c2c1=O	-14
COc1ccc(C(=O)NCc2ccc(N3CCN(C)CC3)cc2)cc1	17.6
O=C(CC1CCC1)Nc1cccc2c([N+](=O)[O-])cccc12	12.8
Cc1ccc(C(=O)Nc2ccc(N3CCCC3)cc2)c(C)c1	2.64
COc1ccc(CNC(=O)CCC(=O)Nc2nnc(CC(C)C)s2)cc1	2.5

Compound	hERG current change (%, negative = inhibition) at 1uM [%]
CC(=O)NC1=C(Nc2ccc(N(C)C)cc2)C(=O)c2ccccc2C1=O	3.85
COc1ccccc1COC(=O)N/C=C/c1ccco1	6.75
CCC(=O)N(c1nnc(SCC(=O)Nc2ccc(N3CCOCC3)cc2)s1)C1CC1	16.4
Cc1ccc(C)c(NC(=O)CS(=O)(=O)c2cn(C)c3ccccc23)c1	-1.47
O=C(Cc1ccccc1)Nc1ccc(NC(=O)c2cccc(Cl)c2)cc1	8.08
Cc1ccc(C)c(CSCc2nc3ccccc3[nH]2)c1	14.2
COc1ccc(-c2cc(=O)c3cc(O)ccc3o2)cc1	13.1
CCc1ccc2nc(N3CCC(C(=O)N4CCC5(CC4)OCCO5)CC3)sc2c1	0.983
COC(=O)c1ccc(C)c(NC(=O)CCCN2C(=O)NC(C)(C)C2=O)c1	11.8
CC(C)CN(CCCNC(=O)CN1N=C(c2ccc(Cl)cc2)CCC1=O)CC(C)C	8.17
Cc1ccc(CN2CCN(Cc3cccc(OCCO)c3)CC2CCO)o1 (stereo not shown)	9.45
S=c1[nH]nc(-c2ccc(Cl)cc2)n1Cc1ccccc1	6.98
O=C(O)CCCNS(=O)(=O)c1ccccc1	15.3
C=CCN(Cc1nc(-c2ccccc2)no1)C(=O)c1ccc2c(c1)OCO2	-3.24
[O-][n+]1onc2c1CCC(=N/O)/C2=N\Nc1ccccc1	12.2
CCOc1ccc(-n2cc(-c3ccccc3)c3c(=S)nc[nH]c32)cc1	16.5
O=C(c1ccccc1)c1nn(-c2ccc(Cl)cc2)c(=O)cc1C(F)(F)F	11.8
COc1ccc(OC)c(NC(=O)CNC(=O)Cn2c(C)cc3ccccc3c2=O)c1	14.1
Cc1ccc(-c2nnc3ccc(SCC(=O)NCc4ccco4)nn23)cc1	4.96
O=C(CSc1ncn[nH]1)NCc1ccccc1	1.38
COP(=S)(OC)c1c(C)nn(CCC#N)c1NC(=O)c1ccc(Cl)cc1	20.9
c1cc(-c2cc3cc(N4CCOCC4)ccc3o2)cs1	11.6
COc1ccc(C(CNC(=O)c2ccc(NS(=O)(=O)c3ccc(F)c(C)c3)cc2)N(C)C)cc1 (stereo not shown)	13.6

Compound	hERG current change (%, negative = inhibition) at 1uM [%]
O=C(Nc1cccc(S(=O)(=O)NC2=NCCCCC2)c1)C1COc2ccccc2O1 (stereo not shown)	8.71
CCc1cc2c(=O)n(CC(=O)NC3CCCCC3)cnc2s1	12
COCCn1c(SCC(=O)Nc2nnc(C)s2)nnc1-c1ccncc1	-0.851
COc1ccc(NC(=O)CCNS(=O)(=O)c2ccc(NC(C)=O)cc2)cc1Cl	15.6
CC(NC(=O)c1noc2c1CCCC2)c1ccccc1 (stereo not shown)	1.11
O=C1CN(C(=O)c2cc([N+](=O)[O-])ccc2Cl)C(c2ccccc2)c2cc(F)ccc2N1 (stereo not shown)	3.49
COc1ccc(C(=O)c2ccc([N+](=O)[O-])cc2)cc1S(=O)(=O)N1CCC(C(=O)O)CC1	10.2
C=CCN(CC(=O)NCc1ccccc1)C(=O)c1csnn1	9.02
CN(C)c1ccc(CN2CC=C(c3ccc(F)cc3)CC2)cc1	-45.6
Cc1cc(C)cc(N(CC(=O)N/N=C/c2ccncc2)S(=O)(=O)c2ccccc2)c1	-7.97
Cc1ccc(Cn2c(Sc3nnc(C)s3)nc3c2c(=O)[nH]c(=O)n3C)cc1	-11.2
COc1ccc(OC)c(Nc2ncnc3c2cnn3-c2cccc(C)c2)c1	4.29
Oc1cccc2cccnc12	9.98
Cc1cc(N2CC(C)OC(C)C2)nc(C(C)C)n1 (stereo not shown)	5.19
C[C@@H]1CC=C[C@H]2[C@H]1C(=O)N(Cc1ccccc1)[C@H]2c1ccc(F)c(-c2ccc(N(C)C)cc2)c1	9.55
CCN(CC)C(=O)c1ccc(NC(=O)CN2CCc3cc(OC)c(OC)cc3C2)cc1	11.7
Cc1sc2nc(CSCC(=O)Nc3cc(F)ccc3F)[nH]c(=O)c2c1C	15.2
COc1ccc(S(=O)(=O)NC(C)C)cc1-n1cnnn1	14.6
CCCCN(C(=O)C(C)Oc1ccc(Br)cc1)c1c(N)n(CC(C)C)c(=O)[nH]c1=O (stereo not shown)	-13.5
CC(=O)[C@@]1(O)CC[C@H]2[C@@H]3CCC4=CC(=O)CC[C@]4(C)[C@H]3CC[C@@]21C	12.5
CC(C)CCN1CCC(Cc2ccccc2)(NC(=O)c2ccccc2)C1=O (stereo not shown)	6.45
CC1(c2ccccc2)NC(=O)N(CC(=O)NNC(=O)c2ccccc2)C1=O (stereo not shown)	8.93
